These are yes or no findings as the source states them, for the method shown. Some entries that bind do so weakly or less than the wild type.
What was measured:
Test in all cases: two-hybrid; targeted yeast two-hybrid, GAL4 binding domain and activation domain fusions (Clontech Matchmaker system); interaction read as growth on -Leu, -Trp, -His, -Ade plates
Cul4 (S. pombe) = target: T1, Cul4 (S. pombe) (UniProt O14122)
T1 sequence: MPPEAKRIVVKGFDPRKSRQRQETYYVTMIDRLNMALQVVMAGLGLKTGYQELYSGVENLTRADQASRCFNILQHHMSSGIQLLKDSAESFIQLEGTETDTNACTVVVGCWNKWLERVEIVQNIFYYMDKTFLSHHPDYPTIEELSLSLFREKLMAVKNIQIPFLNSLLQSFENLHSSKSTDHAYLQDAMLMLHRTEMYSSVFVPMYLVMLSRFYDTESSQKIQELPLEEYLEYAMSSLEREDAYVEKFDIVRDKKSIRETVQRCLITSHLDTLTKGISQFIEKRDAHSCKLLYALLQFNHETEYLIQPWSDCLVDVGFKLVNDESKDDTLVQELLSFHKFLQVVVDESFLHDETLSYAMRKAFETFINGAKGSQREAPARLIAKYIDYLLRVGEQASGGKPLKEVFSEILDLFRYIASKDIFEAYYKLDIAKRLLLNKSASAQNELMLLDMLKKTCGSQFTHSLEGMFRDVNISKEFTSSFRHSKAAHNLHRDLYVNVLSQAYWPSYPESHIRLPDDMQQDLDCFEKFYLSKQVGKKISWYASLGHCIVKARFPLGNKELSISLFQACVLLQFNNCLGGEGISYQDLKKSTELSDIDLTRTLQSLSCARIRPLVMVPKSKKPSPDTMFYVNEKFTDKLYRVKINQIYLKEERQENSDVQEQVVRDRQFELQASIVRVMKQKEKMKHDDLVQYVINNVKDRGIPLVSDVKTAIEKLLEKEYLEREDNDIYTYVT

Clr4 (S. pombe), O60016 = details: remark: other sources report otherwise
Raf1 (S. pombe), O74910 = target: T2, Raf1 (S. pombe), O74910; details: remark: other sources report otherwise
T2 chain: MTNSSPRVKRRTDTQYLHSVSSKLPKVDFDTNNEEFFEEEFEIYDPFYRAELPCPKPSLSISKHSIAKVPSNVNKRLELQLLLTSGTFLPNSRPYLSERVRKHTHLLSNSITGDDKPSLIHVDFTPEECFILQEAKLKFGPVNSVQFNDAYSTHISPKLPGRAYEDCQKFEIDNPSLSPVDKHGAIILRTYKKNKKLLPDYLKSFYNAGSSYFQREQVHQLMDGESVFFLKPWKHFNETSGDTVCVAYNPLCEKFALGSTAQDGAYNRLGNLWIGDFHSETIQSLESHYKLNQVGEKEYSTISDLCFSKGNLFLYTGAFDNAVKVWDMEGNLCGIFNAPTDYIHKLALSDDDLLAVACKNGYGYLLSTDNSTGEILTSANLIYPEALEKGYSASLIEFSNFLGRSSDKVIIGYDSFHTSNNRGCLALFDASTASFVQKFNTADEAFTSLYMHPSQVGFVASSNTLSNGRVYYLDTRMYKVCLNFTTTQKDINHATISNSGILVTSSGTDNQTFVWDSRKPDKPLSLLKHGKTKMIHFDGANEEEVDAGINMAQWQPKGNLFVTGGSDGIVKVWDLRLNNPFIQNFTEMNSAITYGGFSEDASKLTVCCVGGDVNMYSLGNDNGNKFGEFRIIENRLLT

Rik1 (S. pombe), Q10426 = target: T3, Rik1 (S. pombe), Q10426; details: remark: other sources report otherwise
T3 chain: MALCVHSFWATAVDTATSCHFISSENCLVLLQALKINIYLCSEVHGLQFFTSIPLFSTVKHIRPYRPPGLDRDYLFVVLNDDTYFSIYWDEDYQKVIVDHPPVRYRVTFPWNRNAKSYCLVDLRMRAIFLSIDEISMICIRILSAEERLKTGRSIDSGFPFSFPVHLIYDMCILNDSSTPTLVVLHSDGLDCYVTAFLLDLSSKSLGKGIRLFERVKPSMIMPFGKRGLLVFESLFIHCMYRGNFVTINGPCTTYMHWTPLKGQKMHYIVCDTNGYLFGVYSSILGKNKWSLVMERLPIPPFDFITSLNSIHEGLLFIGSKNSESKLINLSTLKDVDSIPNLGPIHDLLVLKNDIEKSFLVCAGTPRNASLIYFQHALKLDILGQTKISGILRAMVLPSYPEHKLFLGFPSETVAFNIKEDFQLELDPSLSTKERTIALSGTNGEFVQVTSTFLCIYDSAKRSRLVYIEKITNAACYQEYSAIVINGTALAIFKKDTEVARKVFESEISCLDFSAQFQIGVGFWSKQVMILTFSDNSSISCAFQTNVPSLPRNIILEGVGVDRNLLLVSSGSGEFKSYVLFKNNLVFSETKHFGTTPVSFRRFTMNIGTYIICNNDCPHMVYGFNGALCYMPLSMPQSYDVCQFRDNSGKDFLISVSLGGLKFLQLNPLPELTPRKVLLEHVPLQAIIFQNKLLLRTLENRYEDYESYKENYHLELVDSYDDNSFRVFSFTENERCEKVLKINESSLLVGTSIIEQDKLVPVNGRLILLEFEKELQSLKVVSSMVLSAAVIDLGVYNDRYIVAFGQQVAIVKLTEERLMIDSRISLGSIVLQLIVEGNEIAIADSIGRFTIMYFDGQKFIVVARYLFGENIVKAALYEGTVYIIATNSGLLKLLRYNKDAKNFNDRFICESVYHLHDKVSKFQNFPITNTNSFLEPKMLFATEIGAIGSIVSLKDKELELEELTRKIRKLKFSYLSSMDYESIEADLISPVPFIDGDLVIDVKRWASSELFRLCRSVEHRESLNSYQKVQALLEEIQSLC

Row | Binder | binding (Cul4 (S. pombe)) | binding (Clr4 (S. pombe), O60016) | binding (Raf1 (S. pombe), O74910) | binding (Rik1 (S. pombe), Q10426)
1 | Raf2 (protein, UniProt O74560 1-636) MPPVRAEKKRKTDLIEQVCVTNKAGELVDLEDVLEYGPYSLTGILSSEKDEQEPLFDESIVLGYSIKISPVWTYNLKDVPEKETMSIWIVTPQRRYGILSPSSEYKAIYEQISEKNRLFYLIKTKFKDDMISGTLEDYDNYIEVLKEKLELPSCFQAILLVQKHIRFLLTQMVATSSLHVWSESPFFIRIRSSYEHLILQINKNIYNARQERKKSKLSSNNPSDNNTTMKSSLNQALTLINLPEQPFSISSPTATPQLGVVKRTSPLRFPLNDIWLSGLRIVDPNIESISLWKRIQVSTSPKHQRYISLQEVCSVIAQQLQITNLEALNKLSSHGETLLQIMHTAFTWRGTKLFNDIKHAIGFRSSVQQARSQFRGYCYDYLFMHCNNGEKTSLHLLRTLICMKLDFSNAQLAAKILFHFLLFDIGSGLSGSDYTYEQYINHSAVAFSFTEEIFEKNFVTVLPDFVKLFSISFGYWPAFSFYDELLKLLRNKYPKVYSSTPNLCDQVWLDRTNLFPCNRSTRSTLPYRPTKLLDLASASSCLSKKETDFKQDTGLYSYNLEKVEALKVSPDLQTGIWSCPVQNCLYFAVCDNPYKPSQVIYDHLLGHVDSKFIFKTPSNSVRSFTNKLEHIMYNIN | binds | – | – | –
2 | Raf2-E104A (protein, UniProt O74560 1-636) MPPVRAEKKRKTDLIEQVCVTNKAGELVDLEDVLEYGPYSLTGILSSEKDEQEPLFDESIVLGYSIKISPVWTYNLKDVPEKETMSIWIVTPQRRYGILSPSSAYKAIYEQISEKNRLFYLIKTKFKDDMISGTLEDYDNYIEVLKEKLELPSCFQAILLVQKHIRFLLTQMVATSSLHVWSESPFFIRIRSSYEHLILQINKNIYNARQERKKSKLSSNNPSDNNTTMKSSLNQALTLINLPEQPFSISSPTATPQLGVVKRTSPLRFPLNDIWLSGLRIVDPNIESISLWKRIQVSTSPKHQRYISLQEVCSVIAQQLQITNLEALNKLSSHGETLLQIMHTAFTWRGTKLFNDIKHAIGFRSSVQQARSQFRGYCYDYLFMHCNNGEKTSLHLLRTLICMKLDFSNAQLAAKILFHFLLFDIGSGLSGSDYTYEQYINHSAVAFSFTEEIFEKNFVTVLPDFVKLFSISFGYWPAFSFYDELLKLLRNKYPKVYSSTPNLCDQVWLDRTNLFPCNRSTRSTLPYRPTKLLDLASASSCLSKKETDFKQDTGLYSYNLEKVEALKVSPDLQTGIWSCPVQNCLYFAVCDNPYKPSQVIYDHLLGHVDSKFIFKTPSNSVRSFTNKLEHIMYNIN | binds | – | – | –
3 | Raf2, O74560 1-636 (protein) MPPVRAEKKRKTDLIEQVCVTNKAGELVDLEDVLEYGPYSLTGILSSEKDEQEPLFDESIVLGYSIKISPVWTYNLKDVPEKETMSIWIVTPQRRYGILSPSSEYKAIYEQISEKNRLFYLIKTKFKDDMISGTLEDYDNYIEVLKEKLELPSCFQAILLVQKHIRFLLTQMVATSSLHVWSESPFFIRIRSSYEHLILQINKNIYNARQERKKSKLSSNNPSDNNTTMKSSLNQALTLINLPEQPFSISSPTATPQLGVVKRTSPLRFPLNDIWLSGLRIVDPNIESISLWKRIQVSTSPKHQRYISLQEVCSVIAQQLQITNLEALNKLSSHGETLLQIMHTAFTWRGTKLFNDIKHAIGFRSSVQQARSQFRGYCYDYLFMHCNNGEKTSLHLLRTLICMKLDFSNAQLAAKILFHFLLFDIGSGLSGSDYTYEQYINHSAVAFSFTEEIFEKNFVTVLPDFVKLFSISFGYWPAFSFYDELLKLLRNKYPKVYSSTPNLCDQVWLDRTNLFPCNRSTRSTLPYRPTKLLDLASASSCLSKKETDFKQDTGLYSYNLEKVEALKVSPDLQTGIWSCPVQNCLYFAVCDNPYKPSQVIYDHLLGHVDSKFIFKTPSNSVRSFTNKLEHIMYNIN | – | no binding | no binding | no binding

From article PMC4121317
